Measured values reported in the supplement of paper PMC12217912.
Some of the results follow. Sequences were assembled here from the parent chain. Inactive controls read about 0.05.

B1: TEV protease; numbered along this chain (parent)
chain: MGESLFKGPRDYNPISSSICHLTNESDGHTTSLYGIGFGPFIITNKHLFRRNNGTLVVQSLHGVFKVKDTTTLQQHLVDGRDMIIIRMPKDFPPFPQKLKFREPQREERICLVTTNFQTKSMSSMVSDTSCTFPSGDGIFWKHWIQTKDGQCGSPLVSTRDGFIVGIHSASNFTNTNNYFTSVPKNFMELLTNQEAQQWVSGWRLNADSVLWGGHKVFMVKPEEPFQPVKEATQL

Variants of: B1
Experiment: raw area under fraction-flipped curve 0-4 h after induction (AUC4h, not background-subtracted), DNA-recorder readout of cleavage of the substrate (dimensionless); higher = more cleavage of the substrate by the protease variant
Settings: temperature: 34 °C; time window: 0-4 h after rhamnose induction
Description: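 In vivo DNA recorder in E. coli TOP10(DE3) ΔrhaA at 34 °C. Each TEVp single-site mutant (parent TEVp 0) is paired with a single-site variant of the 7-mer TEVs (canonical ENLYFQ|S). The substrate sits between flexible linkers in a Bxb1-sfGFP-TEVs-SsrA fusion, so cleavage stabilises Bxb1 and speeds flipping of a recombination array, read by NGS. The value is the raw area under the fraction-flipped curve over 0-4 h after rhamnose induction (AUC4h), with ≥20 reads per time point. It is not background-subtracted; inactive controls average about 0.047.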
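Further: Bxb1 expression induced with 0.2% (w/v) L-rhamnose at OD600 near 0.5, cultures sampled hourly, flipped fraction per protease–substrate barcode pair counted by paired-end Illumina sequencing.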

Variant | area with substrate ENLYFAS | area with substrate ENLYFES | area with substrate ENLYFFS | area with substrate ENLYFIS | area with substrate ENLYFLS | area with substrate ENLYFMS | area with substrate ENLYFNS | area with substrate ENLYFPS | area with substrate ENLYFRS | area with substrate ENLYFWS | area with substrate ENLYFHS | area with substrate ENLYFKS | area with substrate ENLYFSS | area with substrate ENLYFTS | area with substrate ENLYFVS | area with substrate ENLYFYS | area with substrate ENLYFDS | area with substrate ENLYFGS | area with substrate ENLYFCS
T44E | 0.0329 | 0.0506 | 0.0374 | 0.0428 | 0.048 | 0.0379 | 0.0288 | 0.0407 | 0.0379 | 0.036 | – | – | – | – | – | – | – | – | –
T44G | 0.0503 | – | 0.0689 | 0.0537 | 0.0955 | 0.0564 | 0.0609 | 0.0523 | 0.0548 | – | 0.0298 | 0.0428 | 0.0591 | 0.0579 | 0.0506 | 0.0691 | – | – | –
T44H | 0.0377 | 0.0483 | 0.0567 | 0.039 | – | 0.053 | 0.0519 | – | 0.0393 | – | – | 0.039 | 0.0567 | 0.0417 | 0.0545 | 0.0481 | 0.0311 | 0.0415 | –
N45C | 0.0594 | 0.0599 | 0.0764 | 0.0507 | 0.0654 | 0.0637 | 0.0675 | 0.0689 | 0.0478 | 0.0713 | 0.0654 | – | – | 0.062 | – | – | 0.0511 | – | 0.0631
N45R | 0.057 | 0.0787 | 0.0629 | 0.0582 | – | 0.0641 | – | 0.0634 | 0.0539 | 0.0721 | – | 0.0498 | – | 0.0604 | 0.054 | 0.0544 | 0.057 | 0.0663 | 0.0534
K46I | 0.0571 | 0.0655 | 0.0709 | 0.048 | 0.0539 | – | 0.0785 | 0.0583 | – | 0.0488 | – | 0.073 | – | 0.061 | – | 0.0597 | 0.0598 | – | 0.0613
K46V | 0.0627 | 0.0548 | – | 0.0543 | – | 0.0527 | 0.0562 | 0.0491 | 0.0478 | 0.0589 | – | – | – | 0.0422 | 0.0644 | 0.0607 | 0.066 | – | –
K46W | 0.0503 | 0.0618 | 0.0617 | 0.0476 | – | 0.045 | 0.0651 | 0.0561 | – | 0.063 | 0.0607 | 0.0715 | 0.0488 | 0.054 | 0.05 | 0.0525 | – | – | 0.0596
H47M | 0.0306 | 0.0548 | 0.0659 | 0.0512 | 0.0706 | 0.0483 | 0.06 | 0.0598 | 0.0512 | 0.0592 | 0.0592 | 0.0602 | 0.0565 | 0.0598 | 0.0474 | 0.0551 | – | – | 0.0542
H47P | 0.0399 | – | 0.077 | 0.0764 | 0.0705 | 0.0722 | 0.0488 | 0.0644 | – | 0.047 | – | 0.0628 | 0.0556 | 0.0502 | – | – | – | – | –
R50E | 0.0661 | 0.0764 | 0.0633 | 0.0474 | 0.0517 | 0.0659 | 0.0465 | 0.062 | – | 0.0506 | 0.077 | 0.0818 | – | 0.0587 | 0.0566 | 0.0486 | – | 0.0551 | 0.0621
R51F | 0.0796 | 0.0904 | 0.0692 | 0.0613 | – | 0.0722 | 0.0575 | 0.0465 | – | 0.0441 | 0.0588 | – | – | – | 0.0492 | – | – | 0.0635 | 0.0622
G54S | 0.0674 | 0.0611 | 0.0641 | 0.0442 | 0.0539 | 0.0631 | 0.0747 | 0.0593 | 0.0556 | – | – | 0.0674 | 0.024 | 0.0524 | 0.0465 | – | 0.0617 | – | 0.0441
V58F | 0.0642 | – | 0.0625 | 0.061 | – | – | 0.0599 | 0.0565 | 0.0561 | – | – | 0.0478 | – | – | 0.0524 | – | – | 0.0563 | 0.0351
S60M | 0.0586 | 0.0581 | 0.0627 | 0.0632 | – | 0.0676 | – | 0.0536 | 0.064 | 0.0568 | 0.0544 | 0.0453 | – | 0.0619 | – | – | – | 0.0593 | 0.0496
S60P | 0.0485 | – | 0.054 | 0.0511 | 0.044 | 0.0473 | 0.0292 | 0.0512 | 0.0279 | 0.0366 | 0.0272 | 0.0517 | – | 0.047 | – | 0.0558 | – | 0.0587 | 0.043
S60R | 0.0442 | – | 0.0741 | 0.0626 | – | 0.0743 | 0.0586 | – | – | 0.0524 | – | 0.0515 | 0.0421 | 0.0549 | – | – | – | 0.0552 | 0.0549
L61E | 0.056 | 0.0512 | 0.0632 | 0.0684 | – | 0.0684 | 0.043 | 0.0766 | – | – | 0.0389 | 0.066 | 0.0521 | 0.0516 | – | – | 0.0548 | – | 0.0633
H62R | 0.0388 | – | 0.0684 | 0.052 | 0.0664 | 0.0786 | 0.0648 | 0.0619 | – | – | – | – | – | – | – | – | 0.0465 | 0.0507 | –
H62S | 0.059 | 0.0505 | 0.0998 | 0.0558 | 0.0402 | 0.0654 | 0.0752 | 0.0386 | 0.0549 | 0.0667 | – | 0.0643 | 0.0471 | 0.0728 | 0.0628 | 0.0497 | 0.0659 | – | 0.0646
F65M | 0.0523 | 0.0617 | 0.0608 | 0.0521 | – | 0.0623 | 0.0647 | 0.0693 | 0.0676 | 0.0711 | 0.0697 | 0.11 | – | – | 0.066 | – | 0.0652 | – | 0.0572
K68C | 0.0661 | 0.0585 | 0.0586 | 0.063 | 0.0528 | 0.0678 | – | 0.0878 | 0.0528 | 0.0556 | 0.0422 | 0.0177 | 0.0461 | 0.0195 | 0.0535 | 0.0337 | 0.0277 | 0.0675 | –
D69T | 0.0461 | – | – | 0.0538 | 0.0549 | 0.0579 | 0.0709 | 0.0543 | 0.0585 | 0.0584 | – | 0.0554 | 0.0548 | 0.0462 | 0.0443 | – | 0.0529 | 0.0646 | 0.0532
T70G | 0.0591 | 0.0772 | 0.0728 | 0.0481 | 0.0754 | 0.0564 | 0.0504 | 0.0686 | – | 0.0579 | – | 0.0573 | 0.0486 | 0.0658 | – | – | – | – | 0.055
T70H | 0.0634 | – | 0.0642 | 0.0592 | – | 0.0509 | 0.0709 | 0.0672 | 0.0589 | – | – | 0.0742 | – | – | – | 0.0343 | – | – | 0.058
L73S | 0.0529 | 0.0367 | – | 0.048 | 0.0439 | – | 0.0609 | 0.0476 | 0.0818 | – | 0.0518 | 0.0613 | 0.0603 | 0.0398 | 0.0578 | 0.0646 | – | – | 0.07
